# Sequences with one replicate were seen in a single cluster, so their values are uncertain.
# System: ATP
# Assay: switch fluorescence ratio, 500 uM ATP over buffer (Cy3 cluster intensity, sum of 5 cycles each) (fold (ratio)); higher = stronger signal-on switching upon ATP binding; sequences stand for … in TCGTCGGCAGCGTCAGATGTGTATAAGAGACAGTTTTTTTTTTTTTTTTTTTTTTTTT…TC
# Conditions: aptamer strand: ATP DNA aptamer (quencher-CACCTGGGGGAGTATTGCGGAGGAAGG + anchor), 100 nM annealed; ATP concentration: 500 uM; one replicate
# How it was run: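 Per cluster, summed Cy3 intensity from the target cycles was divided by that from the buffer cycles to give the fluorescence ratio, then averaged per switch-domain sequence. Clusters outside 100-1000 RFU were excluded. The Cy3-labelled switching-strand clusters, on a modified Illumina MiSeq flow-cell, were annealed to 100 nM quencher-labelled ATP aptamer and imaged in selection buffer, then after 15 min with 500 uM ATP at 22 °C, for five cycles with NaOH stripping and re-annealing between them.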
# 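Note: ATP exposure 15 min at 22 °C before imaging.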
row,Sequence,switch fluorescence ratio
1,CGTTGGTACT,1.04
2,CGTTGTCACT,0.997
3,CGTTGTGTTG,0.99
4,CGTTGTTAAA,0.998
5,CGTTTACATT,0.97
6,CGTTTCGGCC,0.992
7,CGTTTCTCTT,1
8,CGTTTGTCGC,0.969
9,CGTTTTAGGC,0.976
10,CGTTTTCTGC,1.15
11,CTAAAACAC,1.07
12,CTAAAAGCAT,1.21
13,CTAAAAGCCA,1.02
14,CTAAAAGGCA,1.04
15,CTAAAAGTCG,1.05
16,CTAAAATACT,1.22
17,CTAAACATGC,0.995
18,CTAAACCGGG,1.04
19,CTAAACGTAG,1.01
20,CTAAAGAGA,0.976
21,CTAAAGATAG,0.988
22,CTAAAGGTAC,1.05
23,CTAAAGTCG,0.932
24,CTAAATAAC,1.21
25,CTAAATGTTC,1.04

row,Sequence,switch fluorescence ratio
1,CTAAATTC,1.02
2,CTAACAGTGG,0.995
3,CTAACCCCAA,1.1
4,CTAACGAGG,1.02
5,CTAACGTCTT,0.97
6,CTAACTGCTA,1.14
7,CTAAGACGGA,0.995
8,CTAAGGATAG,0.974
9,CTAAGGGCT,0.975
10,CTAAGTAAGC,1.09
11,CTAAGTACTG,1.15
12,CTAAGTATTT,1.03
13,CTAAGTCAGG,1.04
14,CTAAGTGCTT,0.993
15,CTAATACTGA,0.998
16,CTAATAGGCT,0.964
17,CTAATGTATA,0.988
18,CTAATTGGGG,0.984
19,CTAATTTGGC,0.927
20,CTACAAACAG,1.07
21,CTACAACAGA,1.1
22,CTACACGCCC,1.1
23,CTACATTTGA,0.969
24,CTACCATCGT,0.989
25,CTACCGACGG,1.02

row,Sequence,switch fluorescence ratio
1,CTACCTACGC,2.64
2,CTACGAGCCG,1
3,CTACGATAGA,1.05
4,CTACGATTGT,1.06
5,CTACGCGGGC,2.6
6,CTACGGCATG,1.11
7,CTACGGCTGG,0.991
8,CTACGGTCGG,1.03
9,CTACGTCTCA,1.08
10,CTACTATTAA,1.02
11,CTACTCACCT,1.4
12,CTACTCGGTC,0.934
13,CTACTGGCAA,2.64
14,CTACTGTCCG,0.98
15,CTACTTCGGT,0.985
16,CTACTTTGAT,1.04
17,CTACTTTTGA,0.963
18,CTACTTTTGG,0.978
19,CTAGAAAAAC,1.39
20,CTAGAAGCAG,1.02
21,CTAGAAGCGT,0.978
22,CTAGACAGTC,1.05
23,CTAGAGCGGG,1.05
24,CTAGATCATA,0.984
25,CTAGATGATT,1.01

row,Sequence,switch fluorescence ratio
1,CTAGATGTT,1.01
2,CTAGATTGTC,1.01
3,CTAGCAGGGA,0.98
4,CTAGCCGAGC,1.08
5,CTAGCGAAAG,0.985
6,CTAGCGCAAA,6.18
7,CTAGCGGAAA,0.995
8,CTAGCTCTGT,0.952
9,CTAGCTCTTG,1.03
10,CTAGGATGAT,1
11,CTAGGCGCG,0.955
12,CTAGGCGGTA,1.08
13,CTAGGGCGAC,0.989
14,CTAGGTCCGA,1
15,CTAGGTCTAT,1.02
16,CTAGGTTGTA,1.02
17,CTAGTACAAA,1.01
18,CTAGTACATA,1.02
19,CTAGTATTAC,1.22
20,CTAGTCCCGC,0.969
21,CTAGTCGACG,0.995
22,CTATAACATT,1.06
23,CTATAACCTC,1.04
24,CTATAACTTG,0.992
25,CTATAAGTAC,1.43

row,Sequence,switch fluorescence ratio
1,CTATACAAAA,0.979
2,CTATACGCGA,1.55
3,CTATACTATA,1.06
4,CTATAGCATA,2.24
5,CTATAGTGTC,1.03
6,CTATATGAGG,0.983
7,CTATATTTGT,1.04
8,CTATCATGTA,1.02
9,CTATGACAAC,0.966
10,CTATGAGGCT,0.973
11,CTATGCGGGT,1.02
12,CTATGGACAC,1.02
13,CTATGGCAAC,1.2
14,CTATGTACAC,1.06
15,CTATTAACAC,1.01
16,CTATTCCCGG,1.04
17,CTATTGGAAG,0.946
18,CTATTGGTGA,0.991
19,CTATTGGTGC,0.98
20,CTATTTAGAC,0.987
21,CTATTTGCTT,1.02
22,CTATTTGGGA,1.01
23,CTATTTTAA,0.981
24,CTCAAAAACC,0.998
25,CTCAAATCGC,1.1

row,Sequence,switch fluorescence ratio
1,CTCAAATTGG,1.03
2,CTCAACTGAA,1.02
3,CTCAAGAGAG,1.17
4,CTCACAGGAA,1.06
5,CTCACATTAT,1.06
6,CTCACGGGGT,1.09
7,CTCAGATGCT,1.01
8,CTCAGGGAGA,0.971
9,CTCAGTCGCT,0.99
10,CTCAGTTCGT,1.02
11,CTCATAATAG,1.08
12,CTCATCACGA,0.994
13,CTCATCTAGC,1
14,CTCATCTTTT,1.01
15,CTCATGTATG,0.981
16,CTCATTCCCT,1.04
17,CTCATTGGAA,1.04
18,CTCCAAAACT,1.38
19,CTCCAAGGAT,1.17
20,CTCCAAGTTC,1.59
21,CTCCACATTT,1.64
22,CTCCACGAAT,1.42
23,CTCCATCTGG,1.17
24,CTCCATTACC,1.38
25,CTCCCAACCT,1.88

row,Sequence,switch fluorescence ratio
1,CTCCCATATT,1.38
2,CTCCCCACCC,1.3
3,CTCCCGATTG,1.35
4,CTCCCGGCCT,1.07
5,CTCCCTCTAT,1.1
6,CTCCGGAAGG,4.36
7,CTCCGGACTG,1.15
8,CTCCGGCCGG,1.03
9,CTCCGGTTTT,1.7
10,CTCCGTGAAA,3.31
11,CTCCGTGGCA,1.96
12,CTCCTGTAGC,1.45
13,CTCCTGTGAT,1.5
14,CTCCTTCTTA,1.06
15,CTCCTTGCAG,1.61
16,CTCCTTTCGT,1.05
17,CTCGAAAATG,1.03
18,CTCGAATGTG,1
19,CTCGACGGTA,1.03
20,CTCGAGCAAG,2.33
21,CTCGAGCCTA,1.04
22,CTCGAGCGAG,1.02
23,CTCGATCACA,1.01
24,CTCGCGAGTT,1.04
25,CTCGCGCCCT,1.11

row,Sequence,switch fluorescence ratio
1,CTCGCTCGGC,1.22
2,CTCGGACATC,1.29
3,CTCGGAGGAT,1
4,CTCGGCCTAG,1.03
5,CTCGGCTATG,1.2
6,CTCGGCTCTG,0.984
7,CTCGGGACCC,0.981
8,CTCGGGATCG,0.977
9,CTCGGGCGAG,1
10,CTCGGGCGGA,1.01
11,CTCGGGTTG,0.971
12,CTCGGT,1
13,CTCGGTACAA,1.13
14,CTCGTAGACC,0.994
15,CTCGTCGGTA,1.02
16,CTCGTGAATA,1.05
17,CTCGTTACCG,1.1
18,CTCGTTTGTT,0.991
19,CTCTAGCCTT,1.03
20,CTCTATCACG,1.09
21,CTCTATGGTG,1.1
22,CTCTATTTG,1.01
23,CTCTCCTTGC,1.41
24,CTCTCGTCTG,1.06
25,CTCTGAAATG,1.15
